Measured values from PubChem BioAssay AID360 (National Center for Advancing Translational Sciences (NCATS), 2006).
The whole screen tested about 48,000 compounds, of which about 550 (1.1%) were called active. Not shown: some 4% with an inconclusive outcome. Cut-off read from the data, not from the text of the source: active = potency below about 15 µM; inconclusive = mostly about 16 µM to 33 µM; inactive = weaker than that. The list shows a part of the results.

Target: Lysosomal acid glucosylceramidase (Homo sapiens) (UniProt P04062)
Experiment: Glucocerebrosidase;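 note: the screen sought inhibitors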
Settings: purified enzyme, resorufin glucoside fluorescence (screen aimed at inhibitors), 20 min
Summary of the method: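 Normal human glucocerebrosidase (0.2 nM final) was assayed with resorufin β-D-glucopyranoside (30 uM final) in 50mM citric acid/KH2PO4, 10mM sodium taurocholate, 0.01% tween-20, pH 5.9. Compounds were titrated; fluorescence (Ex 548, Em 600) read after 20 min at RT.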
Potency is the fitted concentration of half-maximal effect.

Sequence of UniProt P04062 (P04062 whole entry, looked up): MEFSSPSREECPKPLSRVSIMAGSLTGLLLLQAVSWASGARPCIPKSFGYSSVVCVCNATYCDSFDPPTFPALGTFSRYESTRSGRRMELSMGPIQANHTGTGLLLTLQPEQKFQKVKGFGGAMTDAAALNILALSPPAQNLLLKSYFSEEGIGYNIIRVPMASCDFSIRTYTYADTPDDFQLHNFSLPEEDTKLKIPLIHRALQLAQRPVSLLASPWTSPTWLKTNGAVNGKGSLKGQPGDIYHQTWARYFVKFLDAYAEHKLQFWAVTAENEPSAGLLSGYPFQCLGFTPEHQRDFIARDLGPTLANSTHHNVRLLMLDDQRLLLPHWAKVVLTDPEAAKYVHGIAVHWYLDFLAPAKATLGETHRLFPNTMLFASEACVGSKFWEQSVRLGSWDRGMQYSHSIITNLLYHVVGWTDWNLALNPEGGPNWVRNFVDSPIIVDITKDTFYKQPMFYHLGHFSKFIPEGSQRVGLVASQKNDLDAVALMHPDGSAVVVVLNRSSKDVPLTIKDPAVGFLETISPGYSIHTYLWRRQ

Row | SMILES | Potency
1 | O=C(CCn1nc(-c2ccccc2)c2ccccc2c1=O)NCC1CCCO1 (stereo not given) | inactive: > 76.9 µM
2 | O=C(Nc1ccc(Br)c(Cl)c1)c1ccco1 | inactive: > 76.9 µM
3 | Cc1ccc(N(CC(=O)N2CC(=O)Nc3ccccc32)S(=O)(=O)c2ccc3c(c2)OCCO3)cc1 | inactive
4 | CSc1cccc(NC(=O)COc2ccccc2)c1 | inactive: > 76.9 µM
5 | Cc1cc(C)nc(SCCn2c(N3CCCCC3)nc3c2c(=O)n(C)c(=O)n3C)n1 | inactive: > 76.9 µM
6 | CC12/C(=N/O)C3C4CC5C3/C(=N/O)C1C5C42 (stereo not given) | inactive: > 76.9 µM
7 | COc1ccc(OCCOC(=O)c2cccs2)cc1 | inactive: > 76.9 µM
8 | NC(=O)C1(N2CCCCC2)CCN(C2CC(=O)N(Cc3cccs3)C2=O)CC1 (stereo not given) | inactive: > 76.9 µM
9 | O=C(CCCOc1ccc(Cl)cc1Cl)N1CCN(c2ccccn2)CC1 | inactive: > 76.9 µM
10 | Cc1onc(-c2ccccc2Cl)c1C(=O)OCC(=O)N1CCCc2ccccc21 | inactive: > 76.9 µM
11 | COCCN(CC(=O)NCc1ccc(OC)cc1)C(=O)CCC(=O)Nc1nccs1 | inactive: > 76.9 µM
12 | O=C1CC(N2CCN(c3ccccc3Cl)CC2)C(=O)N1c1ccccc1 (stereo not given) | inactive: > 76.9 µM
13 | CCCN(c1ccc(C(C)C)cc1)S(=O)(=O)c1c(C)noc1C | inactive: > 76.9 µM
14 | COc1ccccc1CNC(=O)[C@@H]1CCCN1C(=O)C1CCN(S(=O)(=O)c2ccc(C)cc2)CC1 | inactive: > 76.9 µM
15 | CC1Cc2nc(SCC(=O)NCC3CCCO3)n(Cc3ccccc3)c(=O)c2S1 (stereo not given) | inactive: > 76.9 µM
16 | Cc1ccccc1NC(=O)C1CCCN1C(=O)NC1CCCCC1 (stereo not given) | inactive: > 76.9 µM
17 | CCNS(=O)(=O)c1ccc2nc(NC(=O)c3cccnc3)sc2c1 | inactive: > 76.9 µM
18 | CCOC(=O)/C=C1\SCC(=O)N1CC(=O)Nc1ccc2c(c1)CCC2 | inactive: > 76.9 µM
19 | Cc1noc(/C=C/N(C)C)c1S(=O)(=O)N1CCCC(C(=O)NCc2ccc(Cl)cc2)C1 (stereo not given) | active: 14 µM
20 | CC1CCN(CCNC(=O)CCS(=O)(=O)c2ccc(Br)cc2)CC1 | inactive: > 76.9 µM
21 | Cc1ccccc1C1CC(=O)NC2=C1C(=O)CCC2 (stereo not given) | inactive: > 76.9 µM
22 | COc1ccc(NC(=O)c2cc(-c3ccccc3OC)on2)cc1 | inactive: > 76.9 µM
23 | O=C(Nc1cccnc1)c1cc(-c2cccs2)on1 | inactive: > 76.9 µM

Row | SMILES | Potency
24 | Cc1ccccc1NC(=O)CC1SC(=NC2CCCCC2)NC1=O (stereo not given) | inactive: > 76.9 µM
25 | CC(=O)c1cccc(NC(=O)N2CCCC2C(=O)NC2CCCCC2)c1 (stereo not given) | inactive: > 76.9 µM
26 | COc1cc(S(=O)(=O)N2CCCC3(CCCCC3)C2)ccc1-n1cnnn1 | inactive: > 76.9 µM
27 | CCn1nccc1C(=O)Nc1ccc(Cl)cc1Cl | inactive: > 76.9 µM
28 | COCCn1c(-c2cc(OC)c(OC)c(OC)c2)nc2nc3ccccc3nc21 | inactive: > 76.9 µM
29 | CCN1CCN(c2cc(=O)n(-c3cc(Cl)ccc3C)c(=O)[nH]2)CC1 | inactive: > 76.9 µM
30 | Nc1nc(SCC(=O)N2CCc3ccccc3C2)[nH]c(=O)c1-c1ccccc1 | inactive: > 76.9 µM
31 | COc1cc(C(=O)N2CCCN(c3nc4cc(C)ccc4cc3C#N)CC2)cc(OC)c1OC | inactive: > 76.9 µM
32 | Clc1ccccc1-c1nn2c(Cn3cnc4ccccc43)nnc2s1 | inactive: > 76.9 µM
33 | CCOc1ccc(/C(O)=C2/C(=O)C(=O)N(CCOCCO)C2c2ccccc2)cc1 (stereo not given) | inactive: > 76.9 µM
34 | CSCCC(NC(=O)COc1ccccc1)C(=O)N1CCN(c2ccccc2F)CC1 (stereo not given) | inactive: > 76.9 µM
35 | CCOc1ccc(C(=O)O)cc1OC | inactive: > 76.9 µM
36 | N#CCCSCc1ccc(C(=O)O)o1 | inactive: > 76.9 µM
37 | O=C(COC(=O)c1cnccn1)Nc1ccc(Cl)cc1 | inactive: > 76.9 µM
38 | COc1cc2[nH]c(=O)n(CCC(=O)N3CCN(c4cc(Cl)ccc4C)CC3)c(=O)c2cc1OC | inactive: > 76.9 µM
39 | CC(C)=CCCC(C)NC(=O)NC1CCCCC1 (stereo not given) | inactive: > 76.9 µM
40 | COC(=O)c1ccccc1NC(=O)C(C)NS(=O)(=O)c1ccc(OC)cc1 (stereo not given) | inactive: > 76.9 µM
41 | COc1cccc2sc(Nc3nc(-c4ccccn4)cs3)nc12 | inactive: > 76.9 µM
42 | CCOC(=O)C1C(C)=CC(=O)CC1c1ccco1 (stereo not given) | inactive: > 76.9 µM
43 | CCOCCCNC(=O)c1ccc(OC)cc1 | inactive: > 76.9 µM
44 | CCC1(CC)NC(=O)NC1=O | inactive: > 76.9 µM
45 | COCCn1c(=S)[nH]c2ccc(N(C)C)cc2c1=O | inactive: > 76.9 µM
46 | CCN1C(=O)CC(N2CCC(C(=O)N3CCOCC3)CC2)C1=O (stereo not given) | inactive: > 76.9 µM

Row | SMILES | Potency
47 | CN1CCN(S(=O)(=O)c2ccc3[nH]cc(C(=O)O)c(=O)c3c2)CC1 | inactive: > 76.9 µM
48 | COc1nc(NCCc2ccc(OC)c(OC)c2)nc(OC)n1 | inactive: > 76.9 µM
49 | CC(C)CCNC(=O)CCCOc1cc(=O)n(C)c2ccccc12 | inactive: > 76.9 µM
50 | CCn1c(=O)cc(SCC(=O)N2CCN(C3CCCCC3)CC2)c2ccccc21 | inactive: > 76.9 µM
51 | CCSc1ccccc1C(=O)n1nnc2ccccc21 | inactive: > 76.9 µM
52 | CCOC(=O)CSc1nnc(-c2nnc(SCC(=O)OCC)n2CC)n1CC | inactive: > 76.9 µM
53 | NC(=O)c1cnn2c(C(F)(F)F)cc(-c3ccccc3)nc12 | inactive: > 76.9 µM
54 | O=C(NCc1ccco1)c1cc(-c2cccnc2)nc2ccccc12 | inactive: > 76.9 µM
55 | O=C(CCn1nc(-c2ccc(Cl)cc2)ccc1=O)N1CCN(c2ccccn2)CC1 | inactive: > 76.9 µM
56 | CC(C)CCn1c(=O)c2ccccc2n2c(CN(C)Cc3ccccc3)nnc12 | inactive: > 76.9 µM
57 | COC(=O)c1[nH]c2ccc(C)cc2c1NS(=O)(=O)c1ccc(F)c(C)c1 | inactive: > 76.9 µM
58 | COc1ccc(C)cc1S(=O)(=O)N1CCC(C(=O)N2CCOCC2)CC1 | inactive: > 76.9 µM
59 | CC(C)Cn1c(SCC(=O)N2CCN(S(=O)(=O)c3ccccc3)CC2)nc2ccccc21 | inactive: > 76.9 µM
60 | Cc1nnc(Sc2nc3c(c(=O)n(C)c(=O)n3C)n2Cc2ccccc2Cl)s1 | inactive: > 76.9 µM
61 | CC(C)OCCCNC(=O)c1ccncc1 | inactive: > 76.9 µM
62 | CNC(=O)CN(C1CCCCC1)S(=O)(=O)c1ccc(F)cc1 | inactive: > 76.9 µM
63 | O=C(CN1CCN(c2ccc(Cl)cc2)CC1)Nc1ccc(F)cc1 | inactive: > 76.9 µM
64 | CC1CCCCN1C(=O)c1cc(-c2ccc(Cl)c(Cl)c2)on1 (stereo not given) | inactive: > 76.9 µM
65 | O=c1c2ccccc2nc(SCc2nc3ccccc3s2)n1Cc1ccco1 | inactive: > 76.9 µM
66 | CCOC(=O)Cn1c(=O)c2c(nc(N3CCCCC3)n2Cc2ccccc2)n(C)c1=O | inactive: > 76.9 µM
67 | C=CCNC(=O)CN1C2CCCC1CC(NC(=O)c1ccccc1C)C2 (stereo not given) | inactive: > 76.9 µM
68 | CCOc1ccc(N2C(=O)c3cccnc3C2Nc2ccc(Cl)cc2)cc1 (stereo not given) | inactive: > 76.9 µM
69 | O=C(NCc1cccnc1)C1CCCN(S(=O)(=O)c2ccccc2)C1 (stereo not given) | inactive: > 76.9 µM

Row | SMILES | Potency
70 | Fc1ccc(CNc2nc(-c3ccco3)cc(C(F)(F)F)n2)cc1 | inactive: > 76.9 µM
71 | COc1ccc(C(=O)N2CCCC(c3nc(-c4cccs4)no3)C2)cc1 (stereo not given) | inactive: > 76.9 µM
72 | Cc1cc(N2CCCCCC2)nc(-c2ccccc2O)n1 | inactive: > 76.9 µM
73 | COc1ccc(OCC(=O)N2CCN(c3cccc(C(F)(F)F)c3)CC2)cc1 | inactive: > 76.9 µM
74 | CC1Cc2ccccc2N1S(=O)(=O)c1cccc2nsnc12 (stereo not given) | inactive: > 76.9 µM
75 | CCOc1cc2[nH]c(=S)n(CCCOC)c(=O)c2cc1OCC | inactive: > 76.9 µM
76 | Cc1c(C(=O)N2CCN(c3ccccc3)CC2)sc2ncnc(N3CCN(c4ccccc4)CC3)c12 | inactive: > 76.9 µM
77 | CCOC(=O)c1cnc2ccccc2c1NCCO | inactive: > 76.9 µM
78 | COc1cc(OC)cc(-c2nnc(SCc3c(F)cccc3Cl)o2)c1 | inactive: > 76.9 µM
79 | O=C(Nc1ccc(S(=O)(=O)C(F)F)cc1)c1cccc(S(=O)(=O)N2CCOCC2)c1 | inactive
80 | Cc1ccc(-n2c3c(cc(C(=O)N4CCN(C)CC4)c2=O)C(=O)CC(C)(C)C3)cc1 | inactive: > 76.9 µM
81 | CCOC(=O)C1CCCN(CC(=O)Nc2c(C(=O)OC)[nH]c3ccc(C)cc23)C1 (stereo not given) | inactive: > 76.9 µM
82 | COc1ccc(NC(=O)CSc2nc3c(c(=O)n2-c2ccc(F)cc2)SCC3)c(OC)c1 | inactive: > 76.9 µM
83 | O=C(Nc1ccc2c(c1)OCCO2)c1cc(-n2cnnc2)ccc1Cl | inactive: > 76.9 µM
84 | CCCn1c(C)nc2c(c1=O)c1nc3ccccc3nc1n2-c1ccc2c(c1)OCCO2 | inactive: > 76.9 µM
85 | COc1ccc(S(=O)(=O)Nc2cccc(NC(C)=O)c2)cc1 | inactive: > 76.9 µM
86 | CCCC(C(=O)NC1CCCC1)N(C(=O)Cn1nnc(-c2ccc(C)o2)n1)C1CCCC1 (stereo not given) | inactive: > 76.9 µM
87 | COc1ccc(N2CCN(c3nc4c(c(=O)n(C)c(=O)n4C)n3CCCc3ccccc3)CC2)cc1 | inactive: > 76.9 µM
88 | COc1ccc(NC(=O)Cn2nnc(-c3ccccc3F)n2)cc1 | inactive: > 76.9 µM
89 | CCc1nc(NCCCN2CCOCC2)c2oc3ccccc3c2n1 | inactive: > 76.9 µM
90 | Cn1c(CNc2ccc(Cl)cc2)nc2ccccc21 | inactive: > 76.9 µM
